# Laboratory results taken from PubChem BioAssay (NCI).
#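 These data come from cells grown in 96-well plates and exposed to compound for 48 hours at five concentrations. Here, GI50 denotes the concentration required for 50% inhibition of growth. At the TGI there is no net growth.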
# Tested on: NCI-H322M lung
# Test: inhibition of tumour cell growth, NCI panel, 48 h
Structure (SMILES),GI50 [µM],TGI [µM]
Cn1c2ccccc2c2c(-c3ccccc3)[n+]3ccncc3nc21,> 100,> 100
O=c1c2ccccc2nc(Nc2cccc(Cl)c2)n1/N=C/C=C/c1ccccc1,–,> 100
CC(C)c1nc(CN(C)C(=O)N[C@H](C(=O)N[C@@H](Cc2ccccc2)C[C@H](O)[C@H](Cc2ccccc2)NC(=O)OCc2cncs2)C(C)C)cs1,26.4,> 82.1
CC(C)(CC(=O)Nc1ccccc1)C(=O)O,–,> 100
OCc1c[nH]c2ccccc12,24.8,78.2
CC(=O)OC[C@]1(C)C=C2C(=O)[C@](C)(O)C3(CC3)C(C)=C2[C@H]1O,0.195,0.673
O=C1CCC(=O)N2CCCCN12,–,> 100
Nc1c(C(=O)c2ccc(Cl)cc2)[nH]c(NCc2ccccc2)c1C(=S)Nc1ccccc1,–,5.28
O=[N+]([O-])c1ccc(-c2ccc(-c3csc(Nc4ccccn4)n3)o2)cc1,–,> 100
O=C1CSC(c2cccs2)N1c1nc2cc3sc(N4C(=O)CSC4c4cccs4)nc3cc2s1 (stereo unspecified),–,> 50
COc1ccc(-c2cc(=O)c3c(OC)c(OC)c(OC)cc3o2)cc1,–,> 100
O=c1oc2cc(O)ccc2c(O)c1C(c1ccc(C(c2c(O)c3ccc(O)cc3oc2=O)c2c(O)c3ccc(O)cc3oc2=O)cc1)c1c(O)c2ccc(O)cc2oc1=O,–,> 100
Cn1c(=O)c2[nH]c(SCc3ccccn3)nc2n(C)c1=S,–,> 100
CCCCc1ccc(Nc2nc3c(ncn3COCCO)c(=O)[nH]2)cc1,–,> 100
CCNC(=O)C1CCCN1C(=O)C(CCCN=C(N)N)NC(=O)C(CC(C)C)NC(=O)C(Cc1c[nH]c2ccccc12)NC(=O)C(Cc1ccc(O)cc1)NC(=O)C(CO)NC(=O)C(Cc1c[nH]c2ccccc12)NC(=O)C(Cc1cnc[nH]1)NC(=O)C1CCC(=O)N1 (stereo unspecified),–,> 100
O=c1[nH]nc(-c2ccccc2)c2[nH]c(-c3ccccc3)cc12,–,> 100
C=C1C(=O)O[C@H]2[C@H]1CC/C(COC(=O)c1ccc3ccccc3c1)=C\CC[C@@]1(C)O[C@@H]21,1.7,3.3
CC(=O)OC/C=C(/C=C/CNC1CCCCC1)OC(C)=O,–,52.9
CN1CCN(C)C12C=c1ccccc1=CC21CC1,–,> 79.6
Cc1cccc(C)c1NC(=O)C(=O)C1C(=O)NC(=O)NC1=O,–,> 100
COCC1OC(N2C(=O)NC(=O)[C@@H]3C=C4CCCCC4=C[C@@H]32)C(OC)C1OC (stereo partly specified),–,> 100
CC[C@]1(O)C[C@@H]2CN(CCc3c([nH]c4ccccc34)[C@@](C(=O)OC)(c3cc4c(cc3OC)N(C)[C@H]3[C@@](O)(C(=O)OC)[C@H](OC(C)=O)[C@]5(CC)C=CCN6CC[C@]43[C@@H]65)C2)C1,< 0.01,52.5
CCOC(=O)C(NC(=O)CC(C)C)(N1CCN(c2cc3c(cc2F)c(=O)c(C(=O)O)cn3C2CC2)CC1)C(F)(F)F (stereo unspecified),–,> 100
Cc1nc(C)c(Cc2ccccc2)o1,–,> 100

Structure (SMILES),GI50 [µM],TGI [µM]
COc1cc(C2NC(=O)c3ccccc3N2)ccc1OCCCCCOc1c(OC)cc(C2=NOC(c3cc(OC)c(OC)c(OC)c3)C2)cc1OC (stereo unspecified),> 100,> 100
O=C1O[C@@H](c2ccc3c(c2)OCO3)C2C(=O)O[C@@H](c3ccc4c(c3)OCO4)C12 (stereo partly specified),–,> 100
CC1(C)OCC2OC3([C@H]4OC(C)(C)O[C@@H]4CO)OC(C)(C)OC3C2O1 (stereo partly specified),–,> 100
C=CC(=O)N1CC2(CCN(c3nc(OC4CCN(CCCOC)CC4)nc4c(OCC(F)(F)F)c(-c5c(C)ccc6[nH]ncc56)c(C5CC5)cc34)CC2)C1,2.35,6.1
N#Cc1ccc(NC(=O)Nc2ccc(Oc3ccc(NC(=O)Nc4ccc(C#N)cc4)cc3)cc2)cc1,14,> 100
CCC[CH2][Sn]1([CH2]CCC)[O]Cc2nc(C)ccc2[O]1,15.8,29.3
[Cl-].[Dy+3].[O-]/N=C(\c1ccccc1)c1ccccn1.[O-]/N=C(\c1ccccc1)c1ccccn1.[O-]/N=C(\c1ccccc1)c1ccccn1,26.9,> 100
NC(N)=Nc1ncccc1[N+](=O)[O-],–,> 100
CC(=S)N=Cc1c(O)cc(C)oc1=O,–,> 100
CC[C@@H]1CN(C)[C@H]2Cc3c([nH]c4ccccc34)C(=O)C[C@H]1C2C(=O)OC (stereo partly specified),–,> 100
O=C1C(Cl)N(c2ccccc2[N+](=O)[O-])C1c1c[nH]c2ccccc12 (stereo unspecified),–,> 100
CC1(CNCc2ccccc2)CC(CCc2ccccc2)N(C(=O)c2ccc([N+](=O)[O-])cc2)C1Cc1ccc(O)cc1 (stereo unspecified),–,34.2
CN1C(=O)C2(Cc3cn(C45CC67SSC(CO)(C(=O)N6C4Nc4ccccc45)N(C)C7=O)c4ccccc34)SSC1(CO)C(=O)N2C (stereo unspecified),–,3
Cc1cn(C(C)OCCN2C(=O)c3ccccc3C2=O)c(=O)[nH]c1=O (stereo unspecified),–,> 100
O=C1c2cc(Cl)ccc2S(=O)(=O)c2c(NCCCNCCO)nc3ccccc3c21,6.13,19
Cn1c([O-])nc(-n2cc[n+](C)c2)cc1=O,–,> 100
COc1ccc(C2=CC3CCC2C3)cc1 (stereo unspecified),–,> 100
NC(=O)C(=CNC(=S)c1ccncc1)C(N)=O,–,> 100
CCOC(=O)C1=C(OC(OCC)C(CC)[Se]c2ccccc2)CCCC1 (stereo unspecified),–,> 100
COc1ccc(/C=C/CN(C)CCc2ccccc2)cc1OC,–,> 100
O=C(/C=C/c1c(O)ccc2ccccc12)c1cccc(O)c1,–,> 100
COC1/C=C\C=C(/C)C(=O)NC2=CC(=O)C(=O)C(=C2O)CC(C)CC(OC)C(O)C(C)/C=C(\C)C1OC(N)=O (stereo unspecified),–,> 100
O=C(Nc1cccc(O)c1)C(=O)C(C(=O)c1ccccc1F)C1OC(=O)c2ccccc21 (stereo unspecified),–,57.3
COc1cc(C2=NOC(c3cc(OC)c(OC)c(OC)c3)C2)ccc1OCCCCOc1cc2c(cc1OC)C(=O)N1CCC[C@H]1C=N2 (stereo partly specified),0.582,3.3
